This note sets out measurements from PMC6212790.

The list shows a part of the results. At the low end of the ranking the order means little.

This experiment addresses T1, GST-Rok (full length) (UniProt O34857).
T1 sequence: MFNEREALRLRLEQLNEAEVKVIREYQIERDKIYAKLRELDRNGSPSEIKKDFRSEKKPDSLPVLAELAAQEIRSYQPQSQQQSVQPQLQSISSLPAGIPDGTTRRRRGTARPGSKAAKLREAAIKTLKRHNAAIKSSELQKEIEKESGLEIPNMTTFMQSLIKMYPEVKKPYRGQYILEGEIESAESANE
The experiment in a line: protein binding microarray.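 Also: rank score from −0.5 (least bound) to 0.5 (best bound).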 As to conditions: Rok is a gene silencer of Bacillus subtilis; high values mean tight binding; most listed sequences are background and not binding sites; double strand, one strand shown.
For the sequence CCGGCAGA, the binding signal was -0.0543 E-score. Sequence GGGACAAC displayed a binding signal of -0.128 E-score. In turn, AAGCCCTT had a binding signal of -0.204 E-score. Then AACTTGGT, with -0.0799 E-score. Then ATTCCACA, with 0.036 E-score; and CCCTAAAG, with -0.286 E-score. Sequence CCGGAGAC registered a binding signal of -0.152 E-score. Then GGTTGAGA, with 0.0117 E-score; and CAAGTCGC, with -0.116 E-score; and GGGCACGA, with -0.288 E-score. GTAAGCGA: the binding signal is -0.0804 E-score. AGTTCAAA yielded a binding signal of 0.152 E-score. Next, ATGGATAA: 0.192 E-score; GATACGCC: -0.112 E-score. Then ATAACTAC, with 0.316 E-score.

As to CTAGTAGC, the binding signal is 0.251 E-score. Next, GTGTCATA: 0.129 E-score.

The sequence GCTCCTAA returned a binding signal of -0.194 E-score. In turn, CCCCACAA displayed a binding signal of -0.381 E-score. Then CGACGGAC, with -0.29 E-score; and AGGCTTTC, with -0.134 E-score; and GTAATTAA, with 0.181 E-score.

For the sequence CCGGGAAA, the binding signal was -0.192 E-score. Then TAAAGCAA, with 0.13 E-score; and CGTCCAAG, with -0.199 E-score; and CACGCTAG, with 0.104 E-score.

As to CTATGCCA, the binding signal came out at 0.0425 E-score. In turn, CACCATGG registered a binding signal of -0.179 E-score.

Take GAAACAGC: the binding signal is -0.0415 E-score.

ACCCATCA displayed a binding signal of -0.123 E-score. Then CTTAAGTA, with 0.281 E-score.

The sequence CACGTCTG returned a binding signal of -0.0439 E-score. AATAGTAG: the binding signal turned out to be 0.469 E-score. Then ACCAGACT, with -0.185 E-score; and ACGTGGGG, with -0.257 E-score.

For CAAAGGCA, the binding signal was -0.205 E-score. On to CCCACGGG, for which the binding signal is -0.366 E-score. Next, AGTGCGTG: -0.121 E-score. Sequence TGAGTTAA had a binding signal of 0.172 E-score.

For CGGCACTA, the binding signal was 0.188 E-score. Then ATCGATGA, with 0.0457 E-score; and CCAGCCCG, with -0.309 E-score. Next, GGTTTTGA: -0.0831 E-score; GACCGCAC: -0.0911 E-score. Then GTAGGTTA, with 0.224 E-score; and CATTCTGA, with -0.035 E-score; and GGGTCTAC, with -0.166 E-score. AGGTGTGG: the binding signal is -0.0638 E-score. GTGCCAAA showed a binding signal of -0.127 E-score. TCTGATCA: the binding signal was 0.123 E-score.

The sequence GTTGTGAA registered a binding signal of -0.00107 E-score.

In the case of CCTGTTCA, the binding signal was -0.173 E-score. Then GTCCCATA, with -0.17 E-score; and CCGAGTAC, with -0.167 E-score; and ACGTAACT, with 0.18 E-score. Then ACGTTTGC, with -0.0457 E-score. Next, CGCTTAAC: -0.0163 E-score; ACCTTAAA: 0.0297 E-score. On to ATTCTCAG, for which the binding signal stood at 0.0171 E-score. For GCGACCCA, the binding signal is -0.0296 E-score. Then CATCGTGC, with 0.0085 E-score; and ATAAGTAG, with 0.322 E-score. Next, AAAACGAA: 0.0895 E-score; CAGGTCAC: -0.34 E-score; GATACGAC: 0.0541 E-score. The sequence AATAATCT had a binding signal of 0.226 E-score.

GAACACTA came in with a binding signal of -0.038 E-score.

Regarding CGCTTGGA, the binding signal was -0.185 E-score.

In turn, GCCGATGA returned a binding signal of -0.108 E-score. In turn, GCACGGGC yielded a binding signal of -0.182 E-score. As to AACTAAGA, the binding signal is 0.138 E-score. With CATCGTCA, the binding signal was -0.0178 E-score.

In turn, ATATAGAA returned a binding signal of 0.354 E-score. Then AGTGGCCG, with -0.131 E-score. Then TACTGAGA, with 0.0897 E-score; and CTCCTGTC, with -0.207 E-score. Next, CGCTGCAG: -0.257 E-score; CAAGCGTC: -0.151 E-score; CTTTGTGC: -0.124 E-score.

ATTCGCCG returned a binding signal of -0.122 E-score. Then CGTCCTAG, with -0.205 E-score; and CTGCCCAA, with -0.00414 E-score. Next, AAGCGGAC: -0.039 E-score; AGTCACGA: -0.0143 E-score; ACGGTATA: 0.252 E-score. Next, CCTGAAAC: -0.261 E-score; GATCTCCA: -0.0284 E-score. In turn, ATCCATTA showed a binding signal of 0.209 E-score. Then CGTTCGTA, with -0.128 E-score; and CTAAGCGA, with -0.133 E-score; and GGCAAATA, with 0.115 E-score.

With ATAACCGA, the binding signal worked out at 0.00889 E-score. Then CGTGCGAG, with -0.181 E-score; and AACTCACG, with 0.0828 E-score.

CTGGAATC gave a binding signal of 0.0163 E-score. As for ATAGGACG, the binding signal came to 0.0518 E-score. Then CCATCGTC, with 0.0123 E-score; and TCAAGGGA, with -0.141 E-score. Then CGTGATCC, with -0.0331 E-score; and AATCACTG, with 0.0314 E-score; and AATCCGGG, with -0.129 E-score. Then TCTCTGCA, with 0.0197 E-score.

In the case of AGCTCAAT, the binding signal was determined as 0.107 E-score. The sequence GAGGGGAC displayed a binding signal of -0.379 E-score. Then AGCCCCTC, with -0.364 E-score; and CCGGTCCC, with -0.308 E-score; and TTTGCAAA, with 0.0787 E-score. In the case of GGGCGGAA, the binding signal is -0.285 E-score. GACATGGA displayed a binding signal of 0.0821 E-score. Next, GGAGCCAC: -0.133 E-score; GCATGAAA: -0.00446 E-score. Then TAAGACAA, with -0.0484 E-score; and TACTAGAA, with 0.375 E-score; and CCTGTTGA, with -0.00587 E-score.

GCTCCTAC showed a binding signal of -0.158 E-score. Then TGCATCAA, with 0.156 E-score; and CGCGGCAA, with 0.00655 E-score. Regarding AACAGCCA, the binding signal is -0.163 E-score.

CAACCGAC registered a binding signal of -0.153 E-score. As to CCGATAGA, the binding signal stood at 0.214 E-score. Then ACAGGCCT, with -0.262 E-score; and CCAGTTGA, with -0.204 E-score. With CTAGATAG, the binding signal came to 0.346 E-score. Sequence AATCCCTA displayed a binding signal of -0.00541 E-score. For the sequence CAGATAAA, the binding signal came to 0.233 E-score. Consider AGAGACAA, for which the binding signal is -0.0075 E-score. Next, ATGCTCAA: -0.163 E-score; TCTGGTAA: 0.246 E-score; ATTTCCGA: 0.0761 E-score. Next, TACTAGCA: 0.243 E-score.

Sequence AGGGTAAC showed a binding signal of -0.114 E-score. As to AGTCTAAA, the binding signal was found to be 0.0861 E-score.

Sequence CAATCTGC yielded a binding signal of -0.111 E-score.

ACTCGTGA showed a binding signal of -0.0872 E-score. Regarding TATGTGCA, the binding signal is 0.0767 E-score.

AGCTGATG: the binding signal worked out at 0.0192 E-score. Next, AGACTCCA: -0.115 E-score; GGTTAAAC: 0.00977 E-score.

Take ACAGCCCC: the binding signal is -0.302 E-score. Sequence ACAATACC had a binding signal of 0.13 E-score. Sequence ATTGAACC returned a binding signal of -0.0443 E-score.

On to CTGTTAGC, for which the binding signal is 0.245 E-score. For CCAGCGCC, the binding signal is -0.273 E-score.

Consider GGCTACCC, for which the binding signal is -0.301 E-score.

ATAATATC yielded a binding signal of 0.274 E-score.

Consider CAGGTCGC, for which the binding signal was -0.189 E-score. Next, AGTGTCGG: 0.0887 E-score. Next, ATTGAACG: 0.126 E-score. Then TGGCGCAA, with -0.0245 E-score; and AGGGATTG, with -0.0956 E-score.

For AGTTACCC, the binding signal worked out at 0.179 E-score. Consider AAAAGTTG, for which the binding signal was 0.108 E-score. Regarding AGCGGATG, the binding signal is -0.0617 E-score. Then AGTCTCAT, with -0.0786 E-score.

The sequence CGTGTAAA registered a binding signal of 0.0525 E-score. Turning to AAGGTCAT, the binding signal came out at 0.115 E-score. Sequence ATGCGCAC displayed a binding signal of -0.0448 E-score. Next, CGATTAGC: 0.114 E-score; CAGCCCTA: -0.104 E-score; CCTTCTAG: 0.0601 E-score.

With AAGACATT, the binding signal was 0.0855 E-score. AGCACAGC displayed a binding signal of -0.113 E-score.

The sequence AATATTGT showed a binding signal of 0.34 E-score. Then GCCGACGA, with -0.251 E-score; and GATTTTGA, with 0.0717 E-score; and GGGTACCA, with -0.226 E-score.

ACCATGTA returned a binding signal of 0.385 E-score. As to ATGACCTA, the binding signal worked out at 0.00444 E-score. Then ATCTTTTA, with 0.233 E-score; and CAGCTGCG, with -0.211 E-score; and CCTCATAC, with 0.0684 E-score. CAAATACA showed a binding signal of 0.23 E-score.
